From the supplement of paper PMC4166925
± gives the standard deviation of the averaged measurements. Whole data set: some 33,000 sequences, median “E-score (dimensionless, -0.5 to 0.5)” near -0.046, cut for the highest 2% near 0.36. The list shows a part of the results.

Tested on: T1, SpTbr T-box DNA-binding domain (GST fusion)
T1 sequence: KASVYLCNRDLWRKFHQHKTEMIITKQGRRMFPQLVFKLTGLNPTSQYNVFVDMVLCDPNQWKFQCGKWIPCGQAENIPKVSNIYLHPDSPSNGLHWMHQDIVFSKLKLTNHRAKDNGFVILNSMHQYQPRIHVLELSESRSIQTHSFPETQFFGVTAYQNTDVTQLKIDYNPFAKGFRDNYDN
Test: PBM E-score of 8-mer (E-score (dimensionless, -0.5 to 0.5)); Tbr is Tbrain of the sea star Patiria miniata (Pm) or the sea urchin Strongylocentrotus purpuratus (Sp); higher = stronger binding preference; most listed sequences are background and not binding sites
Conditions: the construct has about 5 more residues each side
Outline: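 Each ungapped 8-mer received an enrichment E-score from the Universal PBM Analysis Suite, averaged over duplicate arrays. The proteins were Tbr T-box DNA-binding domains, covering the whole T-box plus about five flanking residues, fused to GST and expressed in BL21 E. coli at 20 °C before glutathione affinity purification. Universal Agilent oligonucleotide arrays were made double-stranded by primer extension and incubated with 200 nM protein in PBS (pH 7.5). The arrays were then scanned and quantified, and every 8-mer was scored from probe intensities.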

Row | Sequence | PBM E-score of 8-mer
1 | AGATCAGG | -0.145 ± 0.025
2 | GTTCTATA | -0.135 ± 0.01
3 | CTTCATGC | -0.135 ± 0.037
4 | AGCGTCAC | 0.3328 ± 0.0021
5 | AATGACAT | 0.0122 ± 0.015
6 | TAAAGTAA | -0.14 ± 0.1
7 | ACCTCAAG | 0.141 ± 0.0034
8 | CATTGAAC | -0.171 ± 0.022
9 | ACATCGGT | -0.0851 ± 0.019
10 | AAGAGCAA | -0.0459 ± 0.021
11 | CCCATAGA | -0.281 ± 0.032
12 | CGCTAAAA | 0.252 ± 0.012
13 | GTGCGCAC | 0.258 ± 0.028
14 | ACCGCCAG | 0.09 ± 0.065
15 | GAAAGTAA | 0.138 ± 0.057
16 | AAGTGACG | 0.4 ± 0.0071
17 | TCGTGACA | 0.325 ± 0.0037
18 | CCCCCGGG | -0.0634 ± 0.012
19 | AGCACGGG | -0.0867 ± 0.012
20 | CATACCTA | -0.186 ± 0.058
21 | CAATAGAG | -0.143 ± 0.12
22 | ACGTGCCG | 0.199 ± 0.058

Row | Sequence | PBM E-score of 8-mer
23 | GGAGCAGA | -0.255 ± 0.057
24 | AGAAGGTC | -0.2756 ± 0.0017
25 | GAGGTGGA | 0.06436 ± 0.00017
26 | GCCGAGGA | 0.0136 ± 0.025
27 | ACCGAAGG | -0.165 ± 0.043
28 | AGAAGTAT | -0.0503 ± 0.0051
29 | CGCGTAGA | -0.0981 ± 0.0072
30 | TACTAAGA | -0.124 ± 0.022
31 | AAGACTGG | -0.0999 ± 0.0028
32 | CGACAGAG | 0.0503 ± 0.04
33 | CGAGTCCG | -0.131 ± 0.0027
34 | CCTCGTCG | 0.244 ± 0.028
35 | CAGGGGTC | -0.231 ± 0.086
36 | TGGAGCCA | -0.0718 ± 0.046
37 | AGATAGGC | -0.196 ± 0.00035
38 | CTGCGGAC | -0.018 ± 0.086
39 | CTAGTTAA | -0.0652 ± 0.081
40 | AACTCGGC | -0.138 ± 0.099
41 | GGGTCCAC | -0.0586 ± 0.0085
42 | ACTGCAGA | -0.0918 ± 0.01
43 | ACCACAGC | -0.156 ± 0.033
44 | CTGGAAAA | -0.0263 ± 0.024

Row | Sequence | PBM E-score of 8-mer
45 | GGCAGAAA | 0.0136 ± 0.069
46 | CGCTAGTC | 0.0969 ± 0.0088
47 | GTCCTCAC | 0.2647 ± 0.0021
48 | CTCGTCTA | -0.00184 ± 0.065
49 | AAGTACAC | 0.101 ± 0.033
50 | AAGCAATA | -0.197 ± 0.027
51 | ATAGGCCC | -0.177 ± 0.11
52 | AACGGCTA | 0.00613 ± 0.046
53 | CAAAAGGA | -0.0102 ± 0.051
54 | CGCACATA | 0.357 ± 0.019
55 | AGAGAGCT | -0.0758 ± 0.017
56 | CCAGGCCG | -0.0516 ± 0.008
57 | AGTTGGGG | -0.246 ± 0.013
58 | ATTCAAGA | -0.184 ± 0.052
59 | GACGAACA | 0.0905 ± 0.086
60 | GAAAACCA | -0.0648 ± 0.057
61 | ATCGCATA | -0.023 ± 0.02
62 | ATGGGATA | -0.19 ± 0.035
63 | TGACTCAA | -0.0762 ± 0.042
64 | ATCCAAAT | 0.0769 ± 0.013
65 | GCGGGCCC | -0.106 ± 0.053
66 | CCCTCTTC | 0.00724 ± 0.0096

Row | Sequence | PBM E-score of 8-mer
67 | ATTCCCAA | -0.227 ± 0.012
68 | ACTGCTCA | -0.0696 ± 0.041
69 | GGTCCTTA | -0.239 ± 0.013
70 | AGATTCCG | -0.0246 ± 0.022
71 | ACATTAAC | 0.102 ± 0.018
72 | AGTTCCGC | -0.036 ± 0.029
73 | ACGAGGAT | -0.133 ± 0.0081
74 | CTCCTTAC | -0.048 ± 0.025
75 | AGCGTCCT | -0.149 ± 0.074
76 | GTTTTTCA | 0.243 ± 0.017
77 | ATGTCGTG | 0.126 ± 0.03
78 | AGTTATAA | -0.0736 ± 0.083
79 | CTAATTCA | 0.0741 ± 0.0055
80 | CGCATGTA | -0.128 ± 0.06
81 | CGTACAAG | -0.163 ± 0.058
82 | AAGCTCGA | -0.0878 ± 0.051
83 | ACTGTTAC | 0.168 ± 0.0045
84 | CAGTGAAA | 0.045 ± 0.043
85 | ATGTCTGA | -0.166 ± 0.062
86 | CATATTAA | -0.168 ± 0.067
